Laboratory results from publication PMC8558838 (The Journal of Experimental Medicine, 2021).
No constants are given. Whether binding was seen depends on the method and setting. Some results given as binding are weak or reduced against the parent protein; the word gives no strength. For some of these results: Tags and fused reporters may be left off the sequences shown.

The chains behind the UniProt entries cited, without tags or fusion partners.
UniProt Q9QYH9: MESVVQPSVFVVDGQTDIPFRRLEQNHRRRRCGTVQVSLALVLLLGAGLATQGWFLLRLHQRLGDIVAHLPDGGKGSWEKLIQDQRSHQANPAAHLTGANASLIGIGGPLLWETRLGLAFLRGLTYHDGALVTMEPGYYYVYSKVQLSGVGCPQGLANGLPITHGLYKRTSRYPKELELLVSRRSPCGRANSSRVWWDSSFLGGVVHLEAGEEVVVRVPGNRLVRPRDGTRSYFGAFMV

T1: full-length mHVEM R43D-M56A-K64D triple mutation-mCherry, on cells (mouse), Q80WM9
T1 chain: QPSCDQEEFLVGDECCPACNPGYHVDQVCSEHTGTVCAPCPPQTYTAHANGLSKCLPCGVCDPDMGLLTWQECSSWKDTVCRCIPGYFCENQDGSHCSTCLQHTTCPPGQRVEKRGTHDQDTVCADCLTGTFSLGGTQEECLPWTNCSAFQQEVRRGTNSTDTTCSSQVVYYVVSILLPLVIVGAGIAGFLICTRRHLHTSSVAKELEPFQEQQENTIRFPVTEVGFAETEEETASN


Legend:
[1] = target: full-length mHVEM H86D-mCherry, on cells (mouse) (UniProt Q80WM9); experiment: flow cytometry on cells; cell–cell method: cells with mHVEM-mCherry mixed with cells with mBTLA-EGFP or mLIGHT-IRES-EGFP, shaken at 900 rpm at room temperature for 2 h; percent double-positive cells
[2] = target: full-length mHVEM L94A-mCherry, on cells (mouse) (UniProt Q80WM9); experiment: as above
[3] = target: full-length mHVEM V74D-mCherry, on cells (mouse) (UniProt Q80WM9); experiment: as above
[4] = target: full-length mHVEM A76D-mCherry, on cells (mouse) (UniProt Q80WM9); experiment: as above
[5] = target: full-length mHVEM L90A-mCherry, on cells (mouse) (UniProt Q80WM9); experiment: as above
[6] = target: full-length WT mouse HVEM-mCherry, on cells (mouse) (UniProt Q80WM9); experiment: as above
[7] = target: full-length mHVEM H86D-L90A double mutein-mCherry, on cells (mouse) (UniProt Q80WM9); experiment: as above
[8] = target: full-length mHVEM M56D-mCherry, on cells (mouse) (UniProt Q80WM9); experiment: as above
[9] = target: full-length mHVEM G72D-mCherry, on cells (mouse) (UniProt Q80WM9); experiment: as above
[10] = target: full-length mHVEM L94D-mCherry, on cells (mouse) (UniProt Q80WM9); experiment: as above
[11] = target: full-length mHVEM G72R-V74A double mutein-mCherry, on cells (mouse) (UniProt Q80WM9); experiment: as above
[12] = target: full-length mHVEM R43D-mCherry, on cells (mouse) (UniProt Q80WM9); experiment: as above
[13] = target: full-length mHVEM R43D-M56A-K64D triple mutation-mCherry, on cells (mouse) (UniProt Q80WM9); experiment: as above
[14] = target: T1, full-length mHVEM R43D-M56A-K64D triple …; experiment: as above; conditions: remark: other sources report otherwise
[15] = target: mHVEM^−BT/160 (G72R-V74A) soluble protein, mHVEM-hIgG1 format (mouse) (UniProt Q80WM9); experiment: BLI; Octet; mHVEM-hIgG1 immobilised on the sensors, challenged with different concentrations of mLIGHT, mBTLA or mCD160; steady-state fit for mLIGHT, 1:1 Langmuir model for mBTLA and mCD160; both purified
[16] = target: mHVEM (Q39-Q206)-human IgG1-hexa-His, WT (mouse) (UniProt Q80WM9); experiment: as above

Molecule	binding [1]	binding [2]	binding [3]	binding [4]	binding [5]	binding [6]	binding [7]	binding [8]	binding [9]	binding [10]	binding [11]	binding [12]	binding [13]	binding [14]	binding [15]	binding [16]
full-length mouse BTLA-EGFP, on cells (from UniProt Q7TSA3 30-306) (ligand)	binds	binds	binds	binds	binds	binds	binds	binds	binds	binds	no binding	binds				
full-length mouse LIGHT, on cells (mLIGHT-IRES-EGFP) (from UniProt Q9QYH9 1-239) (ligand)	binds	binds	binds	binds	binds	binds	no binding	binds	binds	binds	binds	binds	binds			
full-length mouse BTLA-EGFP, on cells, Q7TSA3 30-306 (ligand) EKATKRNDEECPVQLTITRNSKQSARTGELFKIQCPVKYCVHRPNVTWCKHNGTICVPLEVSPQLYTSWEENQSVPVFVLHFKPIHLSDNGSYSCSTNFNSQVINSHSVTIHVRERTQNSSEHPLITVSDIPDATNASGPSTMEERPGRTWLLYTLLPLGALLLLLACVCLLCFLKRIQGKEKKPSDLAGRDTNLVDIPASSRTNHQALPSGTGIYDNDPWSSMQDESELTISLQSERNNQGIVYASLNHCVIGRNPRQENNMQEAPTEYASICVRS														binds		
mouse BTLA, soluble protein used as analyte in the Octet experiment (ligand, UniProt Q7TSA3 30-183, looked up, mouse BTLA (CD272), soluble form; also called mBTLA) EKATKRNDEECPVQLTITRNSKQSARTGELFKIQCPVKYCVHRPNVTWCKHNGTICVPLEVSPQLYTSWEENQSVPVFVLHFKPIHLSDNGSYSCSTNFNSQVINSHSVTIHVRERTQNSSEHPLITVSDIPDATNASGPSTMEERPGRTWLLY															no binding	binds
